This is one part of the list.
The sequences below were run against T1, OsWOX13 (Oryza sativa, UniProt Q5QMM3 1-267) (assay: protein-binding microarray (RPBM); PBS, 2% BSA, 51.3 ng/ul salmon testes DNA, 50 uM zinc acetate, 200 nM TF, 25 C, 1 h; high values mean tight binding). Conditions: protein: recombinant; tags: N-terminal polyhistidine and DsRed monomer fusion (pET32a); label: CyDye5-dUTP incorporated in the synthesized complementary strand; 3' TTTTT single-stranded linker to array surface; dsDNA, one strand shown.
T1 sequence: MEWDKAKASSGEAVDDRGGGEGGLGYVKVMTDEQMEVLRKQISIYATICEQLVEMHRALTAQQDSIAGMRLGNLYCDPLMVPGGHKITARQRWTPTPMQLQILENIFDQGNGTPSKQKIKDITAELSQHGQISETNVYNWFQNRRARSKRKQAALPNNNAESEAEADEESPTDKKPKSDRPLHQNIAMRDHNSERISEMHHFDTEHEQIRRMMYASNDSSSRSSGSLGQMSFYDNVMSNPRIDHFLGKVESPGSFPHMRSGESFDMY
In short: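 Transcription factors were each fused at the N-terminus to a polyhistidine tag plus DsRed and expressed in E. coli BL21-CodonPlus before Ni–NTA purification. Binding to a double-stranded custom Agilent array was carried out with 200 nM protein at 25 °C for 1 h in PBS, 2% BSA, salmon testes DNA and 50 µM zinc acetate. The binding signal is per-feature fluorescence intensity, in arbitrary units, on an Axon 4000B scanner.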

Sequence | binding signal
CATCACACTTGATTGTATCCCAGCAAGCTTGATAGAAAAGCGGAGTCACCTAGTGCAG | 8690 fluorescence intensity (a.u.)
GTATAATGAATCTAGATATGATTATATCTAGATTCGTTGTCGGAGTCACCTAGTGCAG | 4680 fluorescence intensity (a.u.)
ATACGATTGCTGTTTATATAAGCTGCTGGTGAACCAGCGTCGGAGTCACCTAGTGCAG | 3180 fluorescence intensity (a.u.)
GGATGACGTTGCATCAAATGATTGCAAAGCGCCATAAGTACGGAGTCACCTAGTGCAG | 3740 fluorescence intensity (a.u.)
TAGAATGATTTATATTATGAAACGGAGGGAGTATCTATTACGGAGTCACCTAGTGCAG | 15200 fluorescence intensity (a.u.)
TTTAATTTTGATATTTTGCTATCACCGTCACATAGGACGACGGAGTCACCTAGTGCAG | 9950 fluorescence intensity (a.u.)
TGCTTAATTAATTATGTGCTAATGAGGTCTTTCATTTTACCGGAGTCACCTAGTGCAG | 56100 fluorescence intensity (a.u.)
GCTAGATTTATATCAGTTCGTAGATATTAAAATTAGGAAGCGGAGTCACCTAGTGCAG | 11800 fluorescence intensity (a.u.)
CAAATTGGCTTCAAGATAAGGTCGTGGAAGCGTGCTACGGCGGAGTCACCTAGTGCAG | 3180 fluorescence intensity (a.u.)
CTCAAATTGCATTCCTCTGAACTCTGAAGCAGTCACTCTGCGGAGTCACCTAGTGCAG | 6170 fluorescence intensity (a.u.)
GCTCCAATTTGGCAAATTCTGTTTATTTTCTTTTGGGATTCGGAGTCACCTAGTGCAG | 6480 fluorescence intensity (a.u.)
AATTAATACTTAATTAATTATGCAATAATAACTGTTTCGTCGGAGTCACCTAGTGCAG | 24800 fluorescence intensity (a.u.)
GGGAGTAATTGAATATGCCTTTTGGGCTGCCATCTGCCCACGGAGTCACCTAGTGCAG | 26800 fluorescence intensity (a.u.)
AAAGATTGGGGAAACCAGGCCTTACTTTCGCTTCACCGAGCGGAGTCACCTAGTGCAG | 7520 fluorescence intensity (a.u.)
AGTAAAATGATTTGTAGTGTTAATAATAAAGAATAAATTACGGAGTCACCTAGTGCAG | 10000 fluorescence intensity (a.u.)
ATTAACAGGTTTTACCAATAAATACTTCTTTATTTATTATCGGAGTCACCTAGTGCAG | 4310 fluorescence intensity (a.u.)
TATGGGTAGGATTGACATTTCACATCGTCAGATCAGATCACGGAGTCACCTAGTGCAG | 8760 fluorescence intensity (a.u.)
AACTTAATTGACGACTCTTCGGGATTAGGATCGTGGACTACGGAGTCACCTAGTGCAG | 50600 fluorescence intensity (a.u.)
ATCTTAATTATATTGGATGACCTCCTTCAGTCATCCCGACCGGAGTCACCTAGTGCAG | 31900 fluorescence intensity (a.u.)
AGTGAGATTTAAACTGTCCTTGCTATACGGACTAACTGTTCGGAGTCACCTAGTGCAG | 3820 fluorescence intensity (a.u.)
TTGATTAAAATCCAGAGAAATTAATTAAGCCAAGCAAGTGCGGAGTCACCTAGTGCAG | 25900 fluorescence intensity (a.u.)

Sequence | binding signal
TCCTAACATTGATGGAGTAATAGATTACTTTTAAATTAATCGGAGTCACCTAGTGCAG | 4270 fluorescence intensity (a.u.)
CTAAATTTGTACAGGTGTATCATCAACATCCATAAACTTTCGGAGTCACCTAGTGCAG | 13200 fluorescence intensity (a.u.)
AAAATAATTAATTTTCGGGATGTTATATATTTATAACATCCGGAGTCACCTAGTGCAG | 25100 fluorescence intensity (a.u.)
GAGAAGATTATTGGATTATAGTAATCTGGCTTATAGATTACGGAGTCACCTAGTGCAG | 4720 fluorescence intensity (a.u.)
AATAATAATCTAATGAAGATAAATAATCACAGTATATCATCGGAGTCACCTAGTGCAG | 5510 fluorescence intensity (a.u.)
ACTATACAATTAATGCATGATCCCACCTATCATACACACACGGAGTCACCTAGTGCAG | 4900 fluorescence intensity (a.u.)
TTTTGAAGATTTAATTGCAATGAATTTAATGGTGTAATCGCGGAGTCACCTAGTGCAG | 17700 fluorescence intensity (a.u.)
GTAGTCAATTGAACCATAATACAATCAAGATATCAGATCACGGAGTCACCTAGTGCAG | 4340 fluorescence intensity (a.u.)
CGCTACTAATTAAGCGAAGGTGTGTCACACCCTCACACGTCGGAGTCACCTAGTGCAG | 6040 fluorescence intensity (a.u.)
AGTAATTTTCTAGTTTCTCACCATGGTTCACTAGTTCATCCGGAGTCACCTAGTGCAG | 4310 fluorescence intensity (a.u.)
AAATGAATTAAATGAGATTTAATTTAGACCCAAATGGACACGGAGTCACCTAGTGCAG | 14600 fluorescence intensity (a.u.)
AGCTACATTGACAGGGTGTCCTGACATTCTCTGGATAATACGGAGTCACCTAGTGCAG | 5480 fluorescence intensity (a.u.)
AAAATAAACATATTATCATAATATATTTAATGCTAAATTTCGGAGTCACCTAGTGCAG | 3740 fluorescence intensity (a.u.)
GTGATTTTCCTTTCTAATCATGGTTTGGCCCATTCCATGCCGGAGTCACCTAGTGCAG | 6570 fluorescence intensity (a.u.)
TATAATTATTATTTATTTTATTTTAACTTACTTTATTATCCGGAGTCACCTAGTGCAG | 4290 fluorescence intensity (a.u.)
GTCGATGTGATTTGGTTCTGAATCAAGGGAATTTCATAGGCGGAGTCACCTAGTGCAG | 10100 fluorescence intensity (a.u.)
GATAATTGAGGGATTATTTTATGGATATACTAGATCTGCACGGAGTCACCTAGTGCAG | 52400 fluorescence intensity (a.u.)
AAGAGAAGATGGAGATTGCAATCACATCTGTGGACGATGACGGAGTCACCTAGTGCAG | 13100 fluorescence intensity (a.u.)
TCTAAGATTGTCACTTTTGAGTATTACATGCTAAGATTGTCGGAGTCACCTAGTGCAG | 3520 fluorescence intensity (a.u.)
AATAACAAACAAATTTAACCGTAAATTACGTGTTCTTTTCCGGAGTCACCTAGTGCAG | 7670 fluorescence intensity (a.u.)
TAATTAAAATGAGTAAATTAACAACAATTAGTATGCAGCTCGGAGTCACCTAGTGCAG | 15300 fluorescence intensity (a.u.)

Sequence | binding signal
GTGGGCCCAATCATTTTCTCTCACTGACATATGGGCCCCACGGAGTCACCTAGTGCAG | 4720 fluorescence intensity (a.u.)
ACCGTAACATCATATTGTCAAATTATGGAATAATTAGGTTCGGAGTCACCTAGTGCAG | 5740 fluorescence intensity (a.u.)
GAAATTGAGAAAGATTTACATTATGTAATTAACTTAAATACGGAGTCACCTAGTGCAG | 23600 fluorescence intensity (a.u.)
TTCACTCAGCTGATTGAAAGTGTTATTTTACTCATGCTTGCGGAGTCACCTAGTGCAG | 39300 fluorescence intensity (a.u.)
ACAATTAATTAACTGAGAAAGTCTCCTAGATTAACAGATTCGGAGTCACCTAGTGCAG | 26300 fluorescence intensity (a.u.)
AATGGACAGTAATTACTGATTATCATTGTCAACCAAATGTCGGAGTCACCTAGTGCAG | 30500 fluorescence intensity (a.u.)
CCTGACTGCACACGCGTACACGCACGTACGCAAGGACCAGCGGAGTCACCTAGTGCAG | 4820 fluorescence intensity (a.u.)
CGTGTCGCTAAATGGGCTAATTGGGCTGATCGGCCAATTTCGGAGTCACCTAGTGCAG | 11200 fluorescence intensity (a.u.)
TGACTAATTACAGGTTAAACCATCTCATCTCTTATATCACCGGAGTCACCTAGTGCAG | 37400 fluorescence intensity (a.u.)
ACGGAGCAGTCCATTAATACGTGATTAATTAAGAATTAGCCGGAGTCACCTAGTGCAG | 10800 fluorescence intensity (a.u.)
TTTGTTGATTTGTTTTGGTTGGATTGATCTGTCGCTTATACGGAGTCACCTAGTGCAG | 25500 fluorescence intensity (a.u.)
ACACTATATTTAAATTTCTTTCCATCCTACCCAATCACCCCGGAGTCACCTAGTGCAG | 3520 fluorescence intensity (a.u.)
GTACATTAAATTGGGGAATAAGCCGGTAACAGGGCAGTGGCGGAGTCACCTAGTGCAG | 8180 fluorescence intensity (a.u.)
CTCTACTAATGCTAATTTGTCTTGTCCTGAGTTAGTTGTTCGGAGTCACCTAGTGCAG | 6380 fluorescence intensity (a.u.)
GACATGATTATTAGTCAGACGACGAATAGTTGTGAGGTGACGGAGTCACCTAGTGCAG | 5130 fluorescence intensity (a.u.)
AGTGACTGGCTCCTTGTACAGTTGTCCTGCCGTTTCAATCCGGAGTCACCTAGTGCAG | 3190 fluorescence intensity (a.u.)
AATTGATTTAACTAAGTGCATTTTGGTCAACAAAGATGTGCGGAGTCACCTAGTGCAG | 25800 fluorescence intensity (a.u.)
CCGCAAATCACCTTAATATCTAAGTATGACTCGTAGACAACGGAGTCACCTAGTGCAG | 6040 fluorescence intensity (a.u.)
CTAGATTTATTAATATCGATATGAATGTGGAAAATGCTAGCGGAGTCACCTAGTGCAG | 25500 fluorescence intensity (a.u.)
CAGTGAGGATTAAAAGTTGATTAACAGAGTAATCCCCTTTCGGAGTCACCTAGTGCAG | 4580 fluorescence intensity (a.u.)
TATTAATTGGTGGCTAGTAGTGTTCATCAGATCCTAGATGCGGAGTCACCTAGTGCAG | 36100 fluorescence intensity (a.u.)

Sequence | binding signal
GCACAGATTAGCACACTGGAAATCAATGAGCACACATACACGGAGTCACCTAGTGCAG | 4560 fluorescence intensity (a.u.)
ATGAAATATAATTTGTTAATAAAAGGGCGGTTCAGATTGTCGGAGTCACCTAGTGCAG | 6400 fluorescence intensity (a.u.)
CGGCGACCGTGGAGTAATTGATGGGCCTCAGAGCGTCGGTCGGAGTCACCTAGTGCAG | 11800 fluorescence intensity (a.u.)
CCGGCCAATCAGAAAATTCCGTGGCAATAATATATATACCCGGAGTCACCTAGTGCAG | 12800 fluorescence intensity (a.u.)
CTGTAATTAGTTTTCCTTAAGTTATAAGATGTAATTTTGTCGGAGTCACCTAGTGCAG | 29300 fluorescence intensity (a.u.)
CAGTATCGCTAATTAATGACATCAACACTAATCAGCGTTGCGGAGTCACCTAGTGCAG | 20800 fluorescence intensity (a.u.)
AAGATTGATGCAAGGAAACAGTGACTCGCCGTAGGGCTTACGGAGTCACCTAGTGCAG | 13600 fluorescence intensity (a.u.)
AAGTAATTTGAGAGAAAATTCGTTTTAAATATCATTAAAGCGGAGTCACCTAGTGCAG | 8590 fluorescence intensity (a.u.)
TCGCCAATGATTGATCGCCTCATTCCCTCCTCCTCCTCCTCGGAGTCACCTAGTGCAG | 57300 fluorescence intensity (a.u.)
GTTCTTTGACAGGTTGACGGGGAGGAACAAGGAGGCGTGGCGGAGTCACCTAGTGCAG | 21100 fluorescence intensity (a.u.)
TTACAGTCATTGACTGTTTAGCATCATTTGAGCCACTGTGCGGAGTCACCTAGTGCAG | 20300 fluorescence intensity (a.u.)
GGTTGATTCCTTCAATGGATTGCCATGCATGTATGCCCAGCGGAGTCACCTAGTGCAG | 7690 fluorescence intensity (a.u.)
TTTAATTCCAAATTTCAGCAATAAATTATATTTCTATATGCGGAGTCACCTAGTGCAG | 4790 fluorescence intensity (a.u.)
CTAACCAATCATCAAATTGTCACTGAAGTCCAAGCTACAACGGAGTCACCTAGTGCAG | 12700 fluorescence intensity (a.u.)
TGGATTGATCACCAGATGGAATATCCCGTGTACGCTTTCCCGGAGTCACCTAGTGCAG | 21900 fluorescence intensity (a.u.)
AATTTAAATTTGAATCGGATATAATTCAAATTCAAATTTGCGGAGTCACCTAGTGCAG | 9610 fluorescence intensity (a.u.)
TCTGATTAGTATATATATATATATATATTATACATTATGACGGAGTCACCTAGTGCAG | 28200 fluorescence intensity (a.u.)
TGCAAATTGAGAAACACACTACATCTCATATTGCGGTTGGCGGAGTCACCTAGTGCAG | 24600 fluorescence intensity (a.u.)
AGGACTCTAATCCCTTGTAATTAGGATCACCGAACCAACACGGAGTCACCTAGTGCAG | 3170 fluorescence intensity (a.u.)
CTTAATGTATGTTGATTTGTCATCACATGTATGATTAGGGCGGAGTCACCTAGTGCAG | 56400 fluorescence intensity (a.u.)
CATAAATTGAACTATGGCTTGACTAAAAGAGTTAGCCAGCCGGAGTCACCTAGTGCAG | 41800 fluorescence intensity (a.u.)
